PubChem BioAssay AID881 (National Center for Advancing Translational Sciences (NCATS), 2007)
Screen size: about 110,000 compounds; about 610 (0.55%) were called active. The inconclusive results got no clear call from the source; some entries with a clear call stand among them for comparison. Calls follow the shape of the dose curve; as a rule, active = well fitted inhibition curve with a large enough effect; inconclusive = small, poorly fitted or top-dose-only effect; inactive = no such curve, though single readings can be large or run the other way. Where the call is inconclusive, the potency comes from a doubtful curve fit.

molecular target: Polyunsaturated fatty acid lipoxygenase ALOX15B (Homo sapiens) (UniProt O15296); assay: qHTS Assay for Inhibitors of 15-hLO-2 (15-human lipoxygenase 2); conditions: purified 15hLO-2, xylenol orange hydroperoxide absorbance; activity change, negative = inhibition: at 57.1 µM (top of the series) unless noted; also: nearly all actives have a fitted effect of over 60% in size
Description: Assay Overview: NIH Molecular Libraries Screening Centers Network [MLSCN] NIH Chemical Genomics Center [NCGC] MLSCN Grant: MH081283-01A1 PI Name: Holman, T.R., University of California, Santa Cruz Human lipoxygenase 15hLO-2 is a member of the closely related lipoxygenase family of enzymes which catalyze the site-specific oxidation of arachidonic acid to various hormone precursor molecules and as such is a candidate for drug development in a variety of disease areas, such as cancer and inflammation. Inhibition of 15hLO-2 activity was screened by utilizing arachidonic acid as a substrate. The extent of hydroperoxide product formation was measured by a secondary chromogenic reaction in which xylenol orange (XO, Sigma-Aldrich, cat. number 39,818-7) reacts with the ferric ions produced from the reaction between the hydroperoxide and ferrous ions. The Fe(III)-XO complex is characterized with red-shifted absorbance at 560 nm. A purified preparation of human 15hLO-2 was supplied by Professor Ted Holman, University of California, Santa Cruz.
Assay Protocol: Buffer: 25 mM Hepes pH 7.5, 0.01% Triton X-100. Reagents/Controls: Buffer in columns 3 and 4 as negative control (no enzyme). Substrate solution: 45 uM arachidonic acid (Sigma-Aldrich, St. Louis, MO) final concentration dispensed throughout the plate. Enzyme: 50 nM 15hLO-2 final concentration in columns 1, 2, 5-48. Column 1 is neutral (100% activity). Column 2 contained pin-transferred titration of NDGA (nordihidroguaiaretic acid, Sigma-Aldrich, N 5023, top concentration 10 mM in DMSO, then 1:2 dilution in duplicate). (Dilution factor: 23 nL into 4 uL.) Chromogenic detection reagent (divalent iron/xylenol orange, Fe-XO): 200 uM xylenol orange plus 300 uM ferrous ammonium sulfate prepared freshly in 50 mM sulfuric acid. Assay Steps: Three uL of enzyme were dispensed to 1536-well Greiner black clear bottom plates. Compounds and controls (23 nL) were transferred via Kalypsys PinTool. The plates were incubated for 15 min at room temperature, and then 1 uL of substrate solution was added to start the reaction. After room temperature incubation for 90 minutes, 4 uL of Fe-XO solution was added to each well followed by a short spin (1000 rpm, 15 sec) and the plates were then incubated for 30 min. The absorbance at 405 and 573 nm were measured using ViewLux (Perkin-Elmer) High-throughput CCD imager and absorbance protocol settings. The 573-to-405 absorbance ratio was used to compute reaction progress.
% is scaled to controls: 0 for no effect and ±100 for the full control effect; potency is read from the fitted curve at half-maximal effect; tags tell the direction and shape of the fitted curve.

Sequence of UniProt O15296 (O15296 whole entry, looked up): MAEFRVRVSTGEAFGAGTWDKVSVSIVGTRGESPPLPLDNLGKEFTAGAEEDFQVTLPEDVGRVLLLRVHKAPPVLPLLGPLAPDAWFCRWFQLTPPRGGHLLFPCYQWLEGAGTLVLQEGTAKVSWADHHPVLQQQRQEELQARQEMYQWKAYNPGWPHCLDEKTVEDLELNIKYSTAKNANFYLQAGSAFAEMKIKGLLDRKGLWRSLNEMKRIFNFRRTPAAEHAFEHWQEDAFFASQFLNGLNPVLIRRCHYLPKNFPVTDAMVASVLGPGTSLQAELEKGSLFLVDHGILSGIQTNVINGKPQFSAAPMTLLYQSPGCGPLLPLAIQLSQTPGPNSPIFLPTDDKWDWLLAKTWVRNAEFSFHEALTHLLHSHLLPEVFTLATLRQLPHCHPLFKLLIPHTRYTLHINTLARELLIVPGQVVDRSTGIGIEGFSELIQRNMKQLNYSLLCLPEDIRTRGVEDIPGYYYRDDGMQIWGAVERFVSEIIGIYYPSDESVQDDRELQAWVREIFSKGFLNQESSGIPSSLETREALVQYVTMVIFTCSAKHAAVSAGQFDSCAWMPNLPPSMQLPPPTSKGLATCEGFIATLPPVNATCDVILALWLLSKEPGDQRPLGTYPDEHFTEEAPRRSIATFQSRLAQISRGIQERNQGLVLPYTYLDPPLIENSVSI

Row | SMILES | Potency | activity change, negative = inhibition
1 | C=CCn1c(N)c(C(=O)OC(C)(C)C)c2nc3ccccc3nc21 | inactive | –
2 | Oc1c(C=NCc2ccc(F)cc2)[nH]c2ccc(Br)c(Cl)c12 | inconclusive: 7.94 µM [inhibitor, partial curve] | –
3 | CCCn1nnc(NC(=O)c2ccc(-c3cccc(Cl)c3)o2)n1 | inconclusive: 0.251 µM [inhibitor, full curve, poor fit] | –
4 | O=C(OCC#CCSc1nc2ccccc2o1)c1ccco1 | inactive | –
5 | S=C1NC=NC2N=CNC12 (stereo not drawn) | inconclusive: 31.6 µM [inhibitor, partial curve] | –
6 | Cc1cc(C)n2nc(SCC3COc4ccccc4O3)nc2n1 (stereo not drawn) | inactive | –
7 | O=C(NCSc1ccnc(SCNC(=O)c2ccc(F)cc2)n1)c1ccc(F)cc1 | inconclusive: 25.1 µM [inhibitor, single point] | –
8 | Cn1c(C(=O)N2CCCC(C(=O)NCCc3ccccc3)C2)cc2sccc21 (stereo not drawn) | inactive | –
9 | CC(=O)c1c(COC(=O)c2cccnc2)nc2ccccc2[n+]1[O-] | inactive | –
10 | CC1CCN(S(=O)(=O)c2ccc(NC(=O)Cn3nnc(-c4ccccc4F)n3)cc2)CC1 | inconclusive: 31.6 µM [inhibitor, single point] | –
11 | NCCSC[C@H](N)C(=O)O | – | inactive: 6.61% [at 11.4 µM]
12 | COc1ccc(OC)c(C(O)c2nc3ccccc3n2C(C)C)c1 (stereo not drawn) | inactive | –
13 | CCOC(=O)Cc1csc(NC(=O)c2sc3nc4c(C)cc(C)cc4cc3c2N)n1 | inconclusive: 10 µM [inhibitor, partial curve] | –
14 | COc1cccc(N=Cc2c(O)n(-c3cccc(C)n3)c(=O)c3ccccc23)c1 | inconclusive: 25.1 µM [inhibitor, partial curve] | –
15 | C=CCNc1sc(C(=O)c2ccccc2)c(N)c1-c1nc2ccccc2s1 | inconclusive: 12.6 µM [inhibitor, partial curve] | –
16 | CCCCCc1cc(O)c2c(C)cc(=O)oc2c1 | inconclusive: 2.51 µM [inhibitor, full curve, poor fit] | –
17 | CCN(C(=O)CSc1nc(-c2ccccc2)c(-c2ccccc2)[nH]1)C1CCS(=O)(=O)C1 (stereo not drawn) | inconclusive: 20 µM [inhibitor, partial curve] | –
18 | CCn1c(N)c(C(=O)NCC2CCCO2)sc1=S (stereo not drawn) | inconclusive: 15.8 µM [inhibitor, single point] | –
19 | CCc1ccc(/C=N/NC(=S)NCCc2ccccc2)cc1 | inconclusive: 12.6 µM [inhibitor, partial curve] | –
20 | CCc1c(C)sc(NC(=O)c2cccs2)c1C(N)=O | inconclusive: 25.1 µM [inhibitor, single point] | –
21 | CC1C/C(=N\NC(=S)NC(C)C)CC(C)(C)C1 (stereo not drawn) | inconclusive: 12.6 µM [inhibitor, partial curve] | –
22 | CS(=O)(=O)N1CCCC(C(=O)NCc2ccc(F)cc2Cl)C1 (stereo not drawn) | inactive | –
23 | CCOC(=O)N1CCN(CCC(=O)c2ccc(Cl)cc2)CC1 | inconclusive: 3.16 µM [inhibitor, full curve] | –
24 | Cc1ccccc1S(=O)(=O)O[C@@H]1NS(=O)(=O)c2ccccc21 | – | inactive: -1.75% [at 11.4 µM]
25 | CN1CCc2cccc3c2[C@H]1Cc1ccc(O)c(O)c1-3 | inconclusive: 0.501 µM [inhibitor, full curve] | –

Row | SMILES | Potency | activity change, negative = inhibition
26 | Cc1cccc(NC(=O)c2cc3c(n(-c4ccccc4)c2=O)CCCC3=O)n1 | inconclusive: 31.6 µM [inhibitor, single point] | –
27 | CCCCOC(=O)Nc1ccc(C(N)=O)cc1 | inactive | –
28 | S=C(NCCCc1cnc[nH]1)NCCCN(Cc1ccc(Cl)c(Cl)c1)c1ccc(Br)cn1 | inconclusive: 39.8 µM [inhibitor, single point] | –
29 | Cn1cnc([N+](=O)[O-])c1Nc1ccc(O)cc1 | inconclusive: 10 µM [inhibitor, partial curve] | –
30 | COc1ccccc1N1Cc2ccccc2C1 | inconclusive: 12.6 µM [inhibitor, partial curve] | –
31 | Cc1ccc(CSc2nnc(-c3cccnc3)n2N)cc1 | inconclusive: 0.251 µM [inhibitor, full curve, poor fit] | –
32 | CC(=O)N1CCN(CCN=CC2=C(O)CC(c3cccs3)CC2=O)CC1 (stereo not drawn) | inactive | –
33 | O=C(c1cc(C(F)(F)F)cc(C(F)(F)F)c1)N1CCC2(CC1)CN(c1ccccc1)C2 | inactive | –
34 | COc1cc(OC)c(C2CC(=O)N3CN(c4ccccc4C)CSC3=C2C#N)cc1OC (stereo not drawn) | inconclusive: 12.6 µM [inhibitor, single point] | –
35 | COCCCNC(=O)CCS(=O)(=O)Cc1ccc(C)cc1 | inconclusive: 0.126 µM [inhibitor, full curve] | –
36 | COc1ccc(NC(=O)Cn2cnc3c(cnn3-c3ccc(C)c(C)c3)c2=O)c(OC)c1 | inconclusive: 25.1 µM [inhibitor, partial curve] | –
37 | O=C(ONc1ccc(N=NC(=O)c2ccccc2O)cc1)c1ccccc1 | inactive | –
38 | CCOc1ccc(C(=O)c2ccc(OC)c(O)c2O)cc1 | inconclusive: 15.8 µM [inhibitor, partial curve] | –
39 | O=C1CC(C(=O)O)c2ccccc2N1 (stereo not drawn) | inactive | –
40 | COc1cc(-c2nnc(SCc3cc(=O)oc4cc(O)c(O)cc34)o2)cc(OC)c1OC | inconclusive: 15.8 µM [inhibitor, partial curve] | –
41 | CCOc1ccc(/C=C/[N+](=O)[O-])c2ccccc12 | inconclusive: 7.94 µM [inhibitor, full curve, poor fit] | –
42 | Cc1c(N=Cc2ccc(Cl)o2)c(=O)n(-c2ccccc2)n1C | inconclusive: 25.1 µM [inhibitor, partial curve] | –
43 | CC(C)(C)CC(=O)NC(=S)NCCc1ccccc1 | inconclusive: 20 µM [inhibitor, partial curve] | –
44 | Cc1ccc(C)c(NC(=S)NC(NC(=O)/C=C/c2ccccc2)C(Cl)(Cl)Cl)c1 (stereo not drawn) | inconclusive: 25.1 µM [inhibitor, single point] | –
45 | CCOc1ccc(-c2nnc3ccc(SCc4ccc(C(=O)OC)o4)nn23)cc1 | inconclusive: 31.6 µM [inhibitor, single point] | –
46 | O=[N+]([O-])c1cccc2c(Br)[nH]nc12 | inactive | –
47 | COc1ccc(C(=O)Nc2ccccc2C(=O)N(Cc2ccco2)C(C(N)=O)C(C)C)cc1 (stereo not drawn) | inconclusive: 15.8 µM [inhibitor, partial curve] | –
48 | Cc1onc(-c2ccccc2Cl)c1C(=O)Nc1nnc(-c2cccc([N+](=O)[O-])c2)s1 | inconclusive: 25.1 µM [inhibitor, single point] | –
49 | Cc1ccc2nc3c(cc(C(=O)NCc4cccnc4)c(=N)n3C(C)C)c(=O)n2c1 | inactive | –
50 | CCN=c1scc(C)n1/N=C/c1ccc(O)c(O)c1O | inconclusive: 15.8 µM [inhibitor, partial curve] | –

Row | SMILES | Potency | activity change, negative = inhibition
51 | O=C(COC(=O)C1CC1)c1c[nH]c2ccccc12 | inactive | –
52 | CN(CCNC(=O)c1cc2c(=O)n(C)c3ccccc3c2n1C)Cc1ccccc1 | inactive | –
53 | O=C(Cn1c2ccccc2c(=O)c2ccccc21)N/N=C/c1cc([N+](=O)[O-])ccc1N1CCCCCC1 | inconclusive: 10 µM [inhibitor, partial curve] | –
54 | CCc1c(C)sc(NC(=O)C2CCCCC2C(=O)O)c1C(N)=O (stereo not drawn) | inconclusive: 39.8 µM [inhibitor, single point] | –
55 | COc1ccc(CNC(=S)Nc2cc(C)cc(C)c2)cc1 | inconclusive: 20 µM [inhibitor, partial curve] | –
56 | O=C(NCC1CCCO1)c1nn2c(c1Cl)NC(c1ccc(F)cc1)CC2C(F)(F)F (stereo not drawn) | inactive | –
57 | C/C(=N\NC(=S)NCCc1ccccc1)c1ccc(C#N)cc1 | inconclusive: 15.8 µM [inhibitor, partial curve] | –
58 | O=C(c1ccco1)N1CCC2(CC1)CCN(c1ccncc1)CC2 | inactive | –
59 | CC1(C)CC(=O)C(N=Nc2ccc3ncsc3c2)=C(O)C1 | inconclusive: 31.6 µM [inhibitor, single point] | –
60 | O=C(c1ccc2c(c1)C(=O)N(Cc1ccco1)C2=O)N1CCOCC1 | inactive | –
61 | COCCNC(=O)c1ccc2c(c1)ncn2-c1ccc(F)c(F)c1 | inconclusive: 0.158 µM [inhibitor, full curve, poor fit] | –
62 | CNC/C(Cl)=N/S(=O)(=O)c1ccc(C)cc1 | – | inactive: -7.55% [at 11.4 µM]
63 | CCOc1ccc2[nH]c(=O)c(C(c3nnnn3Cc3ccco3)N3CCCC(C)C3)cc2c1 (stereo not drawn) | inconclusive: 20 µM [inhibitor, partial curve] | –
64 | CCOC(=O)N1CCN(C(=O)c2cc(C)no2)CC1 | inactive | –
65 | Cc1ccccc1N/C(=C(/C(Cl)=C(Cl)Cl)[N+](=O)[O-])n1nnc2ccccc21 | inconclusive: 10 µM [inhibitor, partial curve] | –
66 | COC(=O)c1ccccc1NC(=O)c1ccc(COc2cccc3ccccc23)o1 | inconclusive: 15.8 µM [inhibitor, partial curve, poor fit] | –
67 | CN1C(=O)c2c(sc3c2CCCC3)NC1c1ccccc1O (stereo not drawn) | inconclusive: 7.94 µM [inhibitor, partial curve] | –
68 | COc1cc(NC(=O)c2ccco2)c(OC)cc1NC(=O)CSc1nnc(-c2cccs2)n1C | inconclusive: 39.8 µM [inhibitor, single point] | –
69 | Cn1c(=O)oc2cc(S(=O)(=O)Nc3ccc4c(c3)OCO4)ccc21 | inactive | –
70 | Cc1ccc(OCC(=O)Nc2ccc(-c3nc4ncccc4o3)cc2)c(C)c1 | – | inactive: 0.864% [at 2.29 µM]
71 | CN(C)c1ccc(N/C=C/C(=O)c2ccco2)cc1 | active: 25.1 µM | –
72 | Cc1ccc(C(=O)CSc2ccccn2)cc1 | inactive | –
73 | CN1C(=O)/C(=C/c2ccccc2OCc2cccc(F)c2)NC1=S | inactive | –
